Source: publication PMC6212790
This is one part of the list. At the low end of the ranking the order means little.

Each sequence was assayed against T1, GST-Rok-C97-191 (UniProt O34857) (assay: protein binding microarray). Settings: Rok is a gene silencer of Bacillus subtilis; high values mean tight binding; most listed sequences are background and not binding sites; double strand, one strand shown.
T1 sequence: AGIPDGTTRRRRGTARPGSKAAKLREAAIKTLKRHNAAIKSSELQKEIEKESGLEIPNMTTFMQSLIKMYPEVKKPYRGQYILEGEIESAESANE
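Note: rank score from −0.5 (least bound) to 0.5 (best bound).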

| Sequence | binding signal [E-score] |
| --- | --- |
| ATGAGGGG | -0.214 |
| GCTGTCAA | -0.08 |
| ACTTATAG | 0.271 |
| GCCTTTAC | -0.187 |
| ACCATTCT | -0.0541 |
| AAGAAATA | 0.145 |
| GACCCATA | 0.0216 |
| AAAGGAGG | -0.128 |
| GCTGGCCC | -0.249 |
| TGAAATCA | 0.00701 |
| CAGCTGTA | 0.0433 |
| CTAGAGAC | 0.0353 |
| CTCGGACC | -0.297 |
| AGAACTTA | 0.0838 |
| AAGACTAG | 0.222 |
| AATACAGT | 0.123 |
| AGTTGTTA | 0.201 |
| ATTTACTA | 0.439 |
| GCTCAGCA | -0.187 |
| AGCGGCAT | 0.0357 |
| CGATAAAA | 0.202 |
| AATTTTAT | 0.316 |
| AGAATATC | 0.285 |
| GCGGCCCA | -0.281 |
| ACTCTGTC | -0.0445 |

| Sequence | binding signal [E-score] |
| --- | --- |
| ATGACCCG | -0.225 |
| AATGCACA | 0.0473 |
| CCTGGTAC | -0.148 |
| CCTCTCTA | -0.109 |
| TCATAGCA | 0.147 |
| CCAACTCG | -0.0471 |
| CCATTTCG | 0.109 |
| CCATATTA | 0.121 |
| CACGCGCA | -0.0772 |
| ATAGCCTG | 0.0234 |
| TAAAGTGA | -0.138 |
| CGCATCTA | 0.0383 |
| ACCTTACG | 0.0462 |
| ACGATAAA | 0.161 |
| TATATACA | 0.402 |
| GTATTAAC | 0.252 |
| TAGTTCGA | 0.322 |
| CATATCGC | -0.000637 |
| AGTGGCAA | 0.0513 |
| AAACCGTG | 0.0264 |
| CACAAGCC | -0.284 |
| CGACGAAG | -0.103 |
| CAAAGTCC | -0.127 |
| AAGCGCCC | -0.123 |
| AATGACTC | -0.0437 |

| Sequence | binding signal [E-score] |
| --- | --- |
| AGACGCTA | 0.165 |
| AAAGCCGC | -0.276 |
| CAAATGAC | 0.00642 |
| GCTAGGAA | -0.0616 |
| CATGCAGC | -0.226 |
| GTCGCTGA | -0.175 |
| GCAGGTTA | -0.105 |
| AAAGGACG | -0.25 |
| CAGGAATC | -0.251 |
| AACCCTGC | -0.259 |
| GCCGAACA | -0.278 |
| ACATTTAC | 0.315 |
| ATGTCTTA | 0.121 |
| AGCGATTG | -0.0954 |
| AGACCTTA | -0.133 |
| AGGGGGCC | -0.296 |
| ATGGATCC | -0.287 |
| TGAATAAA | -0.0759 |
| GGCAGAAA | -0.00585 |
| AGAGAGGA | -0.0391 |
| CCGAGACG | -0.277 |
| TCGAGTAA | 0.211 |
| CAGACTGA | -0.2 |
| TACATATA | 0.349 |
| TCATTTAA | 0.0413 |

| Sequence | binding signal [E-score] |
| --- | --- |
| CCCACAAA | -0.0087 |
| AAATCAAG | 0.113 |
| CTCAAAAC | 0.206 |
| ATACGTCG | 0.104 |
| GGCCACCC | -0.275 |
| CATTAGAC | -0.0549 |
| AATTTGAT | 0.227 |
| ATACCCAA | 0.154 |
| AGAGAGGG | -0.199 |
| TGTACAAA | 0.355 |
| AGGGTGAT | -0.206 |
| CATGCTCG | 0.00598 |
| TAATACAA | 0.297 |
| AGATACTC | 0.285 |
| AGGAACTC | -0.0368 |
| AAACGGTC | -0.126 |
| CTTCGGAC | -0.14 |
| GCCGCTCA | -0.293 |
| GCTGCCAC | -0.306 |
| AGTCATAT | 0.117 |
| ATAGGGGA | -0.145 |
| AATTTTAC | 0.384 |
| AGGAGTTG | -0.135 |
| GAACCCAC | -0.0684 |
| GAGCCGAC | -0.236 |

| Sequence | binding signal [E-score] |
| --- | --- |
| AACCGAGC | -0.224 |
| CACACAGC | 0.0787 |
| GATGGACA | -0.147 |
| CAACTTAG | 0.18 |
| AAGCAGTA | 0.143 |
| GAGCTAAA | 0.105 |
| ATCCACCC | 0.074 |
| CACAAAGC | -0.0352 |
| GAGTATGC | -0.233 |
| ACATGTTA | 0.144 |
| CCGCTTGC | -0.231 |
| CACTGGGG | -0.295 |
| CATAACAA | 0.144 |
| CGGGTCCC | -0.27 |
| AAGCTACT | 0.195 |
| AGGTCCAC | -0.153 |
| CATCCTCA | -0.0453 |
| GGAAGCAC | -0.182 |
| ATGTCTAA | 0.116 |
| GATCCGTA | -0.0215 |
| AAGAACAC | -0.0223 |
| ACAGATCG | -0.206 |
| CACCCCCC | -0.32 |
| GATGGGAC | -0.214 |
| TCCTCGCA | -0.118 |

| Sequence | binding signal [E-score] |
| --- | --- |
| CTTAGACA | -0.239 |
| GTGGATAA | 0.0571 |
| CATCTAAG | -0.163 |
| ACGGCACC | -0.0534 |
| ACCGGCGT | -0.179 |
| ATCTCTTC | -0.0214 |
| CATTTCGC | 0.126 |
| CCTAGTAG | 0.25 |
| AGCCAGAA | -0.242 |
| CTTATTCC | 0.00112 |
| CTAAGGTA | 0.139 |
| AACCATAG | 0.071 |
| GCGGTGCC | -0.364 |
| ATTGAAGG | 0.0532 |
| ACGAGTCA | -0.245 |
| AATGAGCA | -0.0827 |
| CGGGACAC | -0.172 |
| AAGGCATA | -0.0431 |
| GAAATTTA | 0.258 |
| AATACCTC | 0.101 |
| ATAAAATA | 0.396 |
| AGAACTAC | 0.369 |
| AATATCCG | 0.0406 |
| CGAGCGTA | -0.0883 |
| ACAGCCAT | -0.0022 |

| Sequence | binding signal [E-score] |
| --- | --- |
| AATCATCC | -0.149 |
| CTGCGTGC | -0.253 |
| ACCTAGAC | 0.0761 |
| GTCATAGA | -0.052 |
| CCCGATGA | -0.22 |
| CTTGCGCC | -0.355 |
| ATATACAT | 0.288 |
| CGCTCAGA | -0.179 |
| AGGCTTGC | 0.12 |
| AGAGTCAG | 0.0431 |
| ACAAGCGC | -0.153 |
| CCGATCGC | -0.155 |
| TGACAAAA | 0.0786 |
| AGTGAATC | -0.0993 |
| AAGACTGC | -0.143 |
| AGATGACA | 0.0696 |
| ACTATTGC | 0.313 |
| AAACGAAC | -0.191 |
| TCCCCGGA | -0.157 |
| CTGCAACC | -0.172 |
| ACCCTTCT | -0.167 |
| TTGCCCAA | -0.0422 |
| CCATCCAA | -0.0599 |
| ACCGTTTC | -0.153 |
| CAAAGCTA | 0.11 |

| Sequence | binding signal [E-score] |
| --- | --- |
| CGATGAGC | -0.189 |
| ATCGTACG | 0.123 |
| ATCCGTGG | -0.298 |
| GAAAAAGA | -0.0353 |
| AGATTGCG | 0.146 |
| GTCGTCCA | -0.198 |
| GTAATCTA | 0.313 |
| GGTGTAAA | 0.025 |
| GACTGTCC | -0.22 |
| CGTTAATA | 0.245 |
| GACGTAGC | -0.0196 |
| TCTAGGAA | 0.0695 |
| CATTTAGA | -0.0716 |
| GCCTACGC | -0.126 |
| GCCCATCA | -0.301 |
| ATGGGCAA | -0.0382 |
| ACCAGGCG | -0.1 |
| CGGTTCAA | -0.124 |
| CGTAGTTC | 0.213 |
| CAGCCGCA | -0.149 |
| AGCTACAA | 0.209 |
| CACCTAAG | -0.176 |
| AAGGCGTG | -0.132 |
| CTATTTAC | 0.349 |
| CGGAAGAC | -0.236 |

| Sequence | binding signal [E-score] |
| --- | --- |
| GCACTACC | 0.0373 |
| CAGTTACA | 0.29 |
| ACGGTCAC | 0.0646 |
| ACGTGTCG | -0.138 |
| GCACTTGA | -0.0251 |
| CTTTATGA | 0.139 |
| AGTCGAGA | -0.0558 |
| GGGGATAC | -0.179 |
| AACAATGG | -0.0594 |
| AAGTAATT | 0.297 |
| CGCCTAAG | -0.134 |
| ACGGTAAA | 0.286 |
| AATACTTA | 0.234 |
| CACTCGGA | -0.0385 |
| GTCCGAGA | -0.151 |
| ATAACTGA | 0.144 |
| ATGCCAGA | -0.196 |
| CCTTTCTA | 0.108 |
| TTAGATAA | 0.139 |
